PubChem BioAssay AID504466 (National Center for Advancing Translational Sciences (NCATS), 2011)
Hit rate of the full screen: of about 330,000 compounds, about 4,200 (1.3%) were called active. The shares of active, inactive and inconclusive entries below differ from those in the screen. Calls come from the whole dose curve; as a rule, active = well fitted activation curve with a large enough effect; inconclusive = small, poorly fitted or top-dose-only effect; inactive = no such curve, though single readings can be large or run the other way. Where the call is inconclusive, the potency comes from a doubtful curve fit.

Assay: qHTS screen for small molecules that induce genotoxicity in human embryonic kidney (HEK293T) cells expressing luciferase-tagged ELG1; note: nearly all actives have a fitted effect of over 60% in size
Details: HEK293T ELG1-luciferase reporter, luminescence, 16 h; series mostly up to 46 µM
Method in brief: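 HEK293T cells expressing luciferase-tagged ELG1 were treated with compound or DMSO for 16 hr at 37°C. Luciferase activity was then read after 30 min with ONE-Glo at room temperature; rising signal flags genetic stress.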
Potency is the fitted concentration of half-maximal effect; tags give direction and shape of the fitted curve.

SMILES | Potency
CCN1CCN(C(c2ccc(C(F)(F)F)cc2)c2ccc3cccnc3c2O)CC1 (centres undefined) | inconclusive: 29.1 µM [activator, single point]
Cc1ccc(C)c(NC(=O)Cn2nnc(-c3ccc(N4CCOCC4)cc3)n2)c1 | inconclusive: 20.6 µM [activator, single point]
CCc1cc2c(=O)[nH]c(-c3ccccn3)nc2s1 | inconclusive: 4.11 µM [activator, single point]
COc1ccc(C(=O)c2c(C)oc3ccc(O)cc23)c(OC)c1 | inactive
O=C(c1ccccc1)c1cccc(NC(=O)c2ccco2)c1 | inconclusive: 13 µM [activator, partial curve, poor fit]
O=C(COC(=O)CC1CCCC1)Nc1ccccc1[N+](=O)[O-] | inactive
CC(C)(C)CC(=O)Nc1cccc(-c2cn3cccnc3n2)c1 | inconclusive: 9.2 µM [activator, partial curve, poor fit]
COc1ccc(NC(=O)/C(=C\c2ccc3c(c2)OCO3)NC(C)=O)cc1 | inactive
Cc1ccc(C(CC(=O)NCc2ccco2)c2ccccc2)c(O)c1 (centres undefined) | inactive
COC(=O)c1ccc(N=Cc2c(C(F)(F)F)[nH][nH]c2=O)cc1 | inactive
CN1C(=O)c2cccc3c(S(=O)(=O)Nc4ccccc4F)ccc1c23 | active: 5.8 µM
Cc1ccc(C(=O)Nc2ncc3c(Cl)cccc3n2)cc1 | inconclusive: 0.366 µM [activator, full curve, poor fit]
COc1ccc(CNC(=O)c2cnn3c(C(F)F)cc(C)nc23)cc1OC | inconclusive: 23.1 µM [activator, single point]
Cc1ccc(S(=O)(=O)N2CCOCC2)cc1NC(=O)COC(=O)C1(C)CC1(Cl)Cl (centres undefined) | inactive
Cc1c(/C(O)=C2/C(=O)C(=O)N(CCN3CCOCC3)C2c2ccccn2)cnn1-c1ccccc1 (centres undefined) | inconclusive: 3.26 µM [activator, single point]
CN1CCN(C/C(=C2/N=C(c3ccccc3)OC2=O)N(C)C)CC1 | inactive
COc1ccc(CCN(C)C/C=C/c2ccccc2[N+](=O)[O-])cc1OC | inactive
COCCn1c(N2CCN(c3ccccc3)CC2)nc2c1c(=O)n(C)c(=O)n2C | inactive
Cc1ccc(CONC(=O)c2ccc(C)cc2)cc1 | inconclusive: 20.6 µM [activator, single point]
C/C(=N\NC(=O)c1ccccn1)c1ccc(Cl)cc1 | inconclusive: 2.59 µM [activator, full curve]
Cc1noc(C)c1CSc1nc2[nH]ncc2c(=O)n1-c1ccccc1 | inconclusive: 14.6 µM [activator, partial curve]
Cc1ccccc1-c1nc2sc3c(c2c(=O)n1N)CCCC3 | active: 2.91 µM
Cc1ccc(N=Nc2ccc3ccccc3c2O)cc1 | inconclusive: 0.164 µM [activator, partial curve, poor fit]
c1ccc(Oc2cc(-c3ccccc3)ncn2)cc1 | inconclusive: 16.4 µM [activator, partial curve]
NC(=O)CSc1nc(N)c2c3c(sc2n1)CCCCC3 | inconclusive: 16.4 µM [activator, partial curve, poor fit]

SMILES | Potency
C[C@H](CO)N1C[C@H](C)[C@@H](CN(C)C(=O)Nc2ccc3c(c2)OCO3)Oc2c(NC(=O)Cc3ccccc3)cccc2C1=O | inactive
Cc1cccc(C)c1OCC(=O)Nc1cccc(-c2nnc(-c3ccccc3)o2)c1 | inactive
CCOC(=O)Nc1nnc(-c2ccc(OC)cc2)s1 | inconclusive: 14.6 µM [activator, partial curve, poor fit]
Cn1nccc1C(=O)N/N=C/c1c(O)ccc2ccccc12 | inconclusive: 16.4 µM [activator, partial curve, poor fit]
O/N=C1/CC/C(=N\O)c2nn(-c3ccccc3)nc21 | inactive
Cc1cccc(N2CCN(Cc3cn(C)nc3-c3ccccc3F)CC2)n1 | inactive
C/C(=N\NC(=O)c1c([N+](=O)[O-])c(C)nn1C)c1ccc(NC(=O)C2CCCC2)cc1 | inconclusive: 9.2 µM [activator, partial curve]
C/C(NC(=O)c1cccs1)=C1\C(=O)C[C@@H]2[C@H]1C2(C)C | inconclusive: 20.6 µM [activator, single point]
O=C(NCCCN1CCOCC1)c1ccc(Sc2cccc(Cl)c2)c([N+](=O)[O-])c1 | inactive
O=C(COC(=O)c1cc2ccccc2cc1O)c1ccccc1 | inconclusive: 25.9 µM [activator, partial curve, poor fit]
COc1cc(NC(=O)c2cc3sccc3n2C)cc(OC)c1 | active: 5.8 µM
O=C(NCc1ccccn1)c1ccc(Cl)cc1Cl | inconclusive: 18.4 µM [activator, single point]
CN(C(=O)c1ccc(NC(=O)Cc2ccc([N+](=O)[O-])cc2)cc1)C1CC1 | inactive
Cc1ccc(-c2csc(NC(=O)N3CCOCC3)n2)cc1 | inconclusive: 29.1 µM [activator, single point]
Cc1cccc(/C(N)=N/OC(=O)c2cccs2)c1 | inconclusive: 4.61 µM [activator, partial curve]
CC(=O)Nc1cccc(NC(=O)c2cc3ccccc3o2)c1 | active: 5.8 µM
Cc1ccc(S(=O)(=O)NCc2ccncc2)c(C)c1C | inactive
Cc1ccc(-c2nn(C)c(=O)c3ccccc23)cc1S(=O)(=O)NCCO | inconclusive: 23.1 µM [activator, partial curve, poor fit]
Cc1cc(NC(=O)c2cccc(F)c2)no1 | inconclusive: 23.1 µM [activator, partial curve, poor fit]
Cc1ccc(NC2=C(N3CCOCC3)C(=O)c3ccccc3C2=O)cc1 | active: 6.51 µM
COc1ccc(NC(=S)c2ccc3ccccc3n2)cc1 | inconclusive: 11.6 µM [activator, partial curve, poor fit]
Cc1ccc(-c2nn(-c3ccccc3)cc2C=O)o1 | inconclusive: 6.51 µM [activator, single point]
Cc1cc(/C=C\c2ccccc2)nc2ccccc12 | inconclusive: 8.2 µM [activator, partial curve]
CC(C)(C)c1ccc(S(=O)(=O)N2CCN(CC(=O)NC(=O)NC3CCCCC3)CC2)cc1 | inactive
Cc1ncsc1C(=O)Nc1nc2c(s1)CCCC2 | inconclusive: 5.8 µM [activator, partial curve]

SMILES | Potency
[O-]/[N+](=C\c1ccco1)c1ccc(Cl)cc1 | inconclusive: 18.3 µM [activator, partial curve, poor fit]
CCOc1ccc(-c2nnn(CC(=O)Nc3ccccc3OC)n2)cc1OCC | inconclusive: 20.6 µM [activator, partial curve, poor fit]
O=C(CC1CCCCC1)NC1CCCC1 | inconclusive: 20.6 µM [activator, partial curve, poor fit]
O=C(Nc1nc2c(ccc3ccccc32)s1)c1cc([N+](=O)[O-])ccc1N1CCOCC1 | inconclusive: 18.3 µM [activator, partial curve, poor fit]
CC(=O)c1c(C)[nH]c(C(=O)N2CCCC(C)C2)c1C (centres undefined) | inactive
CCc1ccc(C(=O)NC(CCSC)C(=O)OC)cc1 (centres undefined) | inactive
Cc1cnc(NC(=O)CSc2nnc(-c3ccccc3)o2)s1 | inconclusive: 5.17 µM [activator, partial curve]
CC(C)CCOCc1nc2sc3c(c2c(=O)[nH]1)CCC(C)C3 (centres undefined) | inconclusive: 20.6 µM [activator, single point]
N#Cc1ccccc1OCCN1C(=O)c2ccccc2C1=O | active: 13 µM
CC(C)(C)Nc1ncnc2c1cnn2-c1ccccc1 | active: 1.03 µM
CCOc1ccc(-c2nnc(SCC(=O)N3CCNC3=O)o2)cc1 | inconclusive: 5.17 µM [activator, partial curve]
CC1=C(C(=O)OC(C)C)C(c2ccccc2)NC(=S)N1C (centres undefined) | inactive
COCCn1c(C)cc(C2=NNC(=Nc3ccccc3)SC2)c1C | inconclusive: 1.3 µM [activator, partial curve]
COc1ccc(S(=O)(=O)n2nc(OC(=O)c3cccs3)cc2NC(=O)c2cccs2)cc1 | inactive
CC(=O)Nc1ccc(-c2nc3ccccc3o2)cc1 | active: 3.26 µM
CCCc1cc2c(=O)c(-c3ccccn3)coc2cc1OC | inconclusive: 4.11 µM [activator, partial curve]
N/C(=N\OC(=O)c1cccs1)c1cccc([N+](=O)[O-])c1 | inconclusive: 16.4 µM [activator, partial curve, poor fit]
COc1ccc2[nH]c3nc(SCC(=O)Nc4ccc5c(c4)OCO5)nnc3c2c1 | inconclusive: 29.1 µM [activator, single point]
COc1ccc(-c2csc3nc(-c4ccccc4)oc(=O)c23)cc1OC | inconclusive: 18.3 µM [activator, single point]
O=c1c(-c2ccc(Cl)cc2)cnc2n1CCS2 | inconclusive: 18.3 µM [activator, partial curve, poor fit]
Cc1ccc(S(=O)(=O)N(C)C)cc1NC(=O)COC(=O)Cc1cccs1 | inactive
CCOC(=O)C1(CC2CC2)CCN(Cc2cnc(N(C)C)s2)CC1 | inactive
Cc1cc(C)n(-c2ccc(C(=O)Nc3ccc4c(c3)OCCO4)cc2)n1 | inconclusive: 4.11 µM [activator, partial curve, poor fit]
CCOC(=O)c1oc2ccc(CNCCO)c(Cl)c2c1C | inconclusive: 14.1 µM [activator, partial curve, poor fit]
